# The supplement of paper PMC8728848
# This is one part of the list.
# B1: rCnSL-proB (Clitocybe nebularis) (protein)
# chain: PTFSPIFALLAFLPFGTLASLLPQTQLVFRINPNLPGPNDVFVGYRGTNNVVGAIYERDGIKDTPMNNGADAELGPGSYITDDLFTAQIFASGSAGNNPGTTATVCKIYADGVQWRGAPKGYLPVLYFGNGQAAEQTRQTYLQGLDIPGTAIRFANLAKTPNQGPTAPRQMVVPSGGLQTLLKASCFPANHAALPQVLSYFNVRAALPPGWNIRTGPEFPNWTN
# What was measured:
# Test in all cases: glycan array binding signal (z-score within array); higher = stronger binding
# Details in all cases: glycan notation: IUPAC condensed, linker removed
# [1] = target: GlcNAc(b1-2)Gal(b1-3)GalNAc
# Summary of the method: (§1)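 Arrays were curated from the Consortium for Functional Glycomics database, 3228 in total, and kept only where the protein sequence was available. Binding is expressed as a within-array Z-score. This score was averaged across arrays of the same protein sequence at different concentrations or buffers and across linkers, and negative values can be read as non-binding.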
# [2] = target: GlcNAc(b1-2)Man(a1-3)[GlcNAc(b1-2)Man(a1-6)]Man(b1-4)GlcNAc(b1-4)GlcNAc
# Summary of the method: as §1
# [3] = target: GlcNAc(b1-2)Man(a1-3)[GlcNAc(b1-2)Man(a1-6)]Man(b1-4)GlcNAc(b1-4)[Fuc(a1-6)]GlcNAc
# Summary of the method: as §1
# [4] = target: GlcNAc(b1-2)Man(a1-3)[GlcNAc(b1-4)][GlcNAc(b1-2)Man(a1-6)]Man(b1-4)GlcNAc(b1-4)GlcNAc
# Summary of the method: as §1
# [5] = target: GlcNAc(b1-2)Man(a1-3)[GlcNAc(b1-4)][GlcNAc(b1-2)Man(a1-6)]Man(b1-4)GlcNAc(b1-4)[Fuc(a1-6)]GlcNAc
# Summary of the method: as §1
# [6] = target: GlcNAc(b1-2)[GlcNAc(b1-4)]Man(a1-3)[GlcNAc(b1-2)Man(a1-6)]Man(b1-4)GlcNAc(b1-4)GlcNAc
# Summary of the method: as §1
# [7] = target: GlcNAc(b1-2)[GlcNAc(b1-4)]Man(a1-3)[GlcNAc(b1-4)][GlcNAc(b1-2)Man(a1-6)]Man(b1-4)GlcNAc(b1-4)GlcNAc
# Summary of the method: as §1
# [8] = target: GlcNAc(b1-2)[GlcNAc(b1-4)]Man(a1-3)[GlcNAc(b1-4)][GlcNAc(b1-2)[GlcNAc(b1-6)]Man(a1-6)]Man(b1-4)GlcNAc(b1-4)GlcNAc
# Summary of the method: as §1
# [9] = target: GlcNAc(b1-2)[GlcNAc(b1-4)]Man(a1-3)[GlcNAc(b1-4)][GlcNAc(b1-2)[GlcNAc(b1-6)]Man(a1-6)]Man(b1-4)GlcNAc(b1-4)[Fuc(a1-6)]GlcNAc
# Summary of the method: as §1
# [10] = target: GlcNAc(b1-2)[GlcNAc(b1-6)]Man(a1-6)[GlcNAc(b1-2)Man(a1-3)]Man(b1-4)GlcNAc(b1-4)GlcNAc
# Summary of the method: as §1
# [11] = target: GlcNAc(b1-2)[GlcNAc(b1-6)]Man(a1-6)[GlcNAc(b1-2)Man(a1-3)]Man(b1-4)GlcNAc(b1-4)[Fuc(a1-6)]GlcNAc
# Summary of the method: as §1
# [12] = target: GlcNAc(b1-2)[GlcNAc(b1-6)]Man(a1-6)[GlcNAc(b1-4)][GlcNAc(b1-2)Man(a1-3)]Man(b1-4)GlcNAc(b1-4)GlcNAc
# Summary of the method: as §1
# GlcNAc(b1-3)Fuc = target: GlcNAc(b1-3)Fuc
# Summary of the method: as §1
# GlcNAc(b1-3)Gal = target: GlcNAc(b1-3)Gal
# Summary of the method: as §1
# [13] = target: GlcNAc(b1-3)Gal(b1-3)GalNAc
# Summary of the method: as §1
# GlcNAc(b1-3)Gal(b1-4)Glc = target: GlcNAc(b1-3)Gal(b1-4)Glc
# Summary of the method: as §1
# [14] = target: GlcNAc(b1-3)Gal(b1-4)GlcNAc
# Summary of the method: as §1
# [15] = target: GlcNAc(b1-3)Gal(b1-4)GlcNAc(b1-2)Man(a1-3)[GlcNAc(b1-3)Gal(b1-4)GlcNAc(b1-2)Man(a1-6)]Man(b1-4)GlcNAc(b1-4)GlcNAc
# Summary of the method: as §1
# [16] = target: GlcNAc(b1-3)Gal(b1-4)GlcNAc(b1-2)Man(a1-3)[GlcNAc(b1-3)Gal(b1-4)GlcNAc(b1-2)Man(a1-6)]Man(b1-4)GlcNAc(b1-4)[Fuc(a1-6)]GlcNAc
# Summary of the method: as §1
# [17] = target: GlcNAc(b1-3)Gal(b1-4)GlcNAc(b1-2)[GlcNAc(b1-3)Gal(b1-4)GlcNAc(b1-6)]Man(a1-6)[GlcNAc(b1-3)Gal(b1-4)GlcNAc(b1-2)Man(a1-3)]Man(b1-4)GlcNAc(b1-4)GlcNAc
# Summary of the method: as §1
# [18] = target: GlcNAc(b1-3)Gal(b1-4)GlcNAc(b1-3)Gal(b1-4)GlcNAc
# Summary of the method: as §1
# [19] = target: GlcNAc(b1-3)Gal(b1-4)GlcNAc(b1-3)Gal(b1-4)GlcNAc(b1-2)Man(a1-3)[GlcNAc(b1-3)Gal(b1-4)GlcNAc(b1-3)Gal(b1-4)GlcNAc(b1-2)Man(a1-6)]Man(b1-4)GlcNAc(b1-4)GlcNAc
# Summary of the method: as §1
# [20] = target: GlcNAc(b1-3)Gal(b1-4)GlcNAc(b1-3)Gal(b1-4)GlcNAc(b1-2)Man(a1-3)[GlcNAc(b1-3)Gal(b1-4)GlcNAc(b1-3)Gal(b1-4)GlcNAc(b1-2)Man(a1-6)]Man(b1-4)GlcNAc(b1-4)[Fuc(a1-6)]GlcNAc
# Summary of the method: as §1
# [21] = target: GlcNAc(b1-3)Gal(b1-4)GlcNAc(b1-3)Gal(b1-4)GlcNAc(b1-2)[GlcNAc(b1-3)Gal(b1-4)GlcNAc(b1-3)Gal(b1-4)GlcNAc(b1-6)]Man(a1-6)[GlcNAc(b1-3)Gal(b1-4)GlcNAc(b1-3)Gal(b1-4)GlcNAc(b1-2)Man(a1-3)]Man(b1-4)GlcNAc(b1-4)[Fuc(a1-6)]GlcNAc
# Summary of the method: as §1
# [22] = target: GlcNAc(b1-3)Gal(b1-4)GlcNAc(b1-3)Gal(b1-4)GlcNAc(b1-3)Gal(b1-4)GlcNAc(b1-2)Man(a1-3)[GlcNAc(b1-3)Gal(b1-4)GlcNAc(b1-3)Gal(b1-4)GlcNAc(b1-3)Gal(b1-4)GlcNAc(b1-2)Man(a1-6)]Man(b1-4)GlcNAc(b1-4)GlcNAc
# Summary of the method: as §1
# [23] = target: GlcNAc(b1-3)Gal(b1-4)GlcNAc(b1-3)Gal(b1-4)GlcNAc(b1-3)Gal(b1-4)GlcNAc(b1-2)Man(a1-3)[GlcNAc(b1-3)Gal(b1-4)GlcNAc(b1-3)Gal(b1-4)GlcNAc(b1-3)Gal(b1-4)GlcNAc(b1-2)Man(a1-6)]Man(b1-4)GlcNAc(b1-4)[Fuc(a1-6)]GlcNAc
# Summary of the method: as §1
# [24] = target: GlcNAc(b1-3)Gal(b1-4)GlcNAc(b1-3)Gal(b1-4)GlcNAc(b1-3)Gal(b1-4)GlcNAc(b1-2)[GlcNAc(b1-3)Gal(b1-4)GlcNAc(b1-3)Gal(b1-4)GlcNAc(b1-3)Gal(b1-4)GlcNAc(b1-6)]Man(a1-6)[GlcNAc(b1-3)Gal(b1-4)GlcNAc(b1-3)Gal(b1-4)GlcNAc(b1-3)Gal(b1-4)GlcNAc(b1-2)Man(a1-3)]Man(b1-4)GlcNAc(b1-4)[Fuc(a1-6)]GlcNAc
# Summary of the method: as §1
# [25] = target: GlcNAc(b1-3)Gal(b1-4)GlcNAc(b1-3)Gal(b1-4)GlcNAc(b1-3)Gal(b1-4)GlcNAc(b1-3)Gal(b1-4)GlcNAc(b1-2)Man(a1-3)[GlcNAc(b1-3)Gal(b1-4)GlcNAc(b1-3)Gal(b1-4)GlcNAc(b1-3)Gal(b1-4)GlcNAc(b1-3)Gal(b1-4)GlcNAc(b1-2)Man(a1-6)]Man(b1-4)GlcNAc(b1-4)GlcNAc
# Summary of the method: as §1
# [26] = target: GlcNAc(b1-3)Gal(b1-4)GlcNAc(b1-3)Gal(b1-4)GlcNAc(b1-3)Gal(b1-4)GlcNAc(b1-3)Gal(b1-4)GlcNAc(b1-2)Man(a1-3)[GlcNAc(b1-3)Gal(b1-4)GlcNAc(b1-3)Gal(b1-4)GlcNAc(b1-3)Gal(b1-4)GlcNAc(b1-3)Gal(b1-4)GlcNAc(b1-2)Man(a1-6)]Man(b1-4)GlcNAc(b1-4)[Fuc(a1-6)]GlcNAc
# Summary of the method: as §1
# [27] = target: GlcNAc(b1-3)Gal(b1-4)GlcNAc(b1-3)Gal(b1-4)GlcNAc(b1-3)Gal(b1-4)GlcNAc(b1-3)Gal(b1-4)GlcNAc(b1-2)[GlcNAc(b1-3)Gal(b1-4)GlcNAc(b1-3)Gal(b1-4)GlcNAc(b1-3)Gal(b1-4)GlcNAc(b1-3)Gal(b1-4)GlcNAc(b1-6)]Man(a1-6)[GlcNAc(b1-3)Gal(b1-4)GlcNAc(b1-3)Gal(b1-4)GlcNAc(b1-3)Gal(b1-4)GlcNAc(b1-3)Gal(b1-4)GlcNAc(b1-2)Man(a1-3)]Man(b1-4)GlcNAc(b1-4)[Fuc(a1-6)]GlcNAc
# Summary of the method: as §1
# [28] = target: GlcNAc(b1-3)Gal(b1-4)GlcNAc(b1-3)Gal(b1-4)GlcNAc(b1-3)GalNAc
# Summary of the method: as §1
# [29] = target: GlcNAc(b1-3)Gal(b1-4)GlcNAc(b1-3)GalNAc
# Summary of the method: as §1
# [30] = target: GlcNAc(b1-3)Gal(b1-4)GlcNAc(b1-3)[GlcNAc(b1-3)Gal(b1-4)GlcNAc(b1-3)]GalNAc
# Summary of the method: as §1
# [31] = target: GlcNAc(b1-3)Gal(b1-4)GlcNAc(b1-6)[Gal(b1-3)]GalNAc
# Summary of the method: as §1
# [32] = target: GlcNAc(b1-3)Gal(b1-4)GlcNAc(b1-6)[GlcNAc(b1-3)Gal(b1-3)]GalNAc
# Summary of the method: as §1
# [33] = target: GlcNAc(b1-3)Gal(b1-4)GlcNAc(b1-6)[GlcNAc(b1-3)]Gal(b1-4)GlcNAc
# Summary of the method: as §1
# GlcNAc(b1-3)GalNAc = target: GlcNAc(b1-3)GalNAc
# Summary of the method: as §1
# GlcNAc(b1-3)Man = target: GlcNAc(b1-3)Man
# Summary of the method: as §1
# [34] = target: GlcNAc(b1-3)[GlcNAc(b1-4)][GlcNAc(b1-6)]GlcNAc
# Summary of the method: as §1
# [35] = target: GlcNAc(b1-3)[GlcNAc(b1-6)]Gal(b1-4)GlcNAc
# Summary of the method: as §1
# [36] = target: GlcNAc(b1-3)[GlcNAc(b1-6)]GalNAc
# Summary of the method: as §1
# [37] = target: GlcNAc(b1-4)Gal(b1-4)GlcNAc
# Summary of the method: as §1
# GlcNAc(b1-4)GlcNAc = target: GlcNAc(b1-4)GlcNAc
# Summary of the method: as §1
# [38] = target: GlcNAc(b1-4)GlcNAc(b1-4)GlcNAc
# Summary of the method: as §1
# [39] = target: GlcNAc(b1-4)GlcNAc(b1-4)GlcNAc(b1-4)GlcNAc(b1-4)GlcNAc
# Summary of the method: as §1
binder,measurement,setting,value
B1,glycan array binding signal (z-score),[1],-0.369
same,glycan array binding signal (z-score),[2],-0.434
same,glycan array binding signal (z-score),[3],-0.079
same,glycan array binding signal (z-score),[4],-0.28
same,glycan array binding signal (z-score),[5],-0.568
same,glycan array binding signal (z-score),[6],-0.133
same,glycan array binding signal (z-score),[7],-0.318
same,glycan array binding signal (z-score),[8],-0.186
same,glycan array binding signal (z-score),[9],-0.318
same,glycan array binding signal (z-score),[10],-0.524
same,glycan array binding signal (z-score),[11],0.836
same,glycan array binding signal (z-score),[12],-0.147
same,glycan array binding signal (z-score),GlcNAc(b1-3)Fuc,-0.155
same,glycan array binding signal (z-score),GlcNAc(b1-3)Gal,-0.313
same,glycan array binding signal (z-score),[13],-0.306
same,glycan array binding signal (z-score),GlcNAc(b1-3)Gal(b1-4)Glc,-0.16
same,glycan array binding signal (z-score),[14],-0.358
same,glycan array binding signal (z-score),[15],0.074
same,glycan array binding signal (z-score),[16],0.14
same,glycan array binding signal (z-score),[17],0.831
same,glycan array binding signal (z-score),[18],-0.63
same,glycan array binding signal (z-score),[19],3.21
same,glycan array binding signal (z-score),[20],1.04
same,glycan array binding signal (z-score),[21],0.727
same,glycan array binding signal (z-score),[22],0.44
same,glycan array binding signal (z-score),[23],0.576
same,glycan array binding signal (z-score),[24],0.626
same,glycan array binding signal (z-score),[25],0.063
same,glycan array binding signal (z-score),[26],-0.16
same,glycan array binding signal (z-score),[27],0.742
same,glycan array binding signal (z-score),[28],0.523
same,glycan array binding signal (z-score),[29],-0.28
same,glycan array binding signal (z-score),[30],-0.204
same,glycan array binding signal (z-score),[31],-0.684
same,glycan array binding signal (z-score),[32],0.204
same,glycan array binding signal (z-score),[33],-0.219
same,glycan array binding signal (z-score),GlcNAc(b1-3)GalNAc,-0.757
same,glycan array binding signal (z-score),GlcNAc(b1-3)Man,-0.22
same,glycan array binding signal (z-score),[34],-0.62
same,glycan array binding signal (z-score),[35],-0.317
same,glycan array binding signal (z-score),[36],-0.668
same,glycan array binding signal (z-score),[37],0.458
same,glycan array binding signal (z-score),GlcNAc(b1-4)GlcNAc,-0.243
same,glycan array binding signal (z-score),[38],-1.44
same,glycan array binding signal (z-score),[39],-0.001
